We go through 42 sequences from paper PMC7819943, “Rice protein-binding microarrays: a tool to detect cis-acting elements near promoter regions in rice”.

This is one part of the list.

This assay deals with T1, OsWOX13 (Oryza sativa, UniProt Q5QMM3 1-267).
T1 sequence: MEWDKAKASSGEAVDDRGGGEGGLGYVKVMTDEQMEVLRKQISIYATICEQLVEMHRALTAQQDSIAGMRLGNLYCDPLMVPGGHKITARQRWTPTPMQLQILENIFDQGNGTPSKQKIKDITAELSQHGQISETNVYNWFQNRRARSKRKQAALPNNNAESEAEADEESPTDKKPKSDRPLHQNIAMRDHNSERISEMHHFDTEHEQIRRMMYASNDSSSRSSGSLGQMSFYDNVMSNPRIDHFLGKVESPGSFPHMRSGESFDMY
Description: protein-binding microarray (RPBM); PBS, 2% BSA, 51.3 ng/ul salmon testes DNA, 50 uM zinc acetate, 200 nM TF, 25 C, 1 h; high values mean tight binding. The note with it: protein: recombinant; tags: N-terminal polyhistidine and DsRed monomer fusion (pET32a); label: CyDye5-dUTP incorporated in the synthesized complementary strand; 3' TTTTT single-stranded linker to array surface; dsDNA, one strand shown. An outline of the steps: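 Binding signal is reported as fluorescence intensity per feature (arbitrary units) from an Axon 4000B scanner. Incubation used 200 nM of each Ni–NTA-purified, N-terminally polyhistidine- and DsRed-fused transcription factor from E. coli BL21-CodonPlus on a double-stranded custom Agilent array for 1 h at 25 °C, with 50 µM zinc acetate in the buffer, followed by washing.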
On to “GTCTTGATGGCGTTTGTTGAATTGGCTATACAATCTGCTGCGGAGTCACCTAGTGCAG”, for which the binding signal is 6560 fluorescence intensity (a.u.). In the case of “TACAAATAGACAAATTGTAATGACATATTTTAAAACTGAACGGAGTCACCTAGTGCAG”, the binding signal was 25200 fluorescence intensity (a.u.). Regarding “AATAATTGCATCAGAAAATTAAGATCGTGCGTGATAATTACGGAGTCACCTAGTGCAG”, the binding signal is 13400 fluorescence intensity (a.u.).

Turning to “GTTCATAATCTACAGCAAATTACTTCCCCTGAATTTTAATCGGAGTCACCTAGTGCAG”, the binding signal was 4350 fluorescence intensity (a.u.). The value for “GTTTGACATGCAGACTTGATTCTATCACCTATAGCATCTGCGGAGTCACCTAGTGCAG” was 8550 fluorescence intensity (a.u.); that for “AATTAATGTGATAAATTTTCATGCACCAAGAGTGTACTCCCGGAGTCACCTAGTGCAG” was 15200 fluorescence intensity (a.u.). As for “GACAAATTATGGCATTTTAAAATCCAAAATATGGAAAGGGCGGAGTCACCTAGTGCAG”, the binding signal was 14600 fluorescence intensity (a.u.).

As to “GCCGTCAATGACAGATGCAGATTCTCTGGAGGAAGGCACACGGAGTCACCTAGTGCAG”, the binding signal was 5060 fluorescence intensity (a.u.).

As for “TCAAATTTGAGTCCTCATCAGTGCTCATCAATAAGTTATTCGGAGTCACCTAGTGCAG”, the binding signal was 3920 fluorescence intensity (a.u.). For “GGAGATTGGACCCCGCCGCATCTCCACGTCTCCTTCCGCCCGGAGTCACCTAGTGCAG”, the binding signal was 14200 fluorescence intensity (a.u.). For “CATAAATGTCAATTTTGCTAGCCATTAGACTCAACATGCACGGAGTCACCTAGTGCAG”, the binding signal was 17600 fluorescence intensity (a.u.). In the case of “GGTGATGTTAAATTATAGTGGTTTAAAATTTTAAATTTCACGGAGTCACCTAGTGCAG”, the binding signal was 10800 fluorescence intensity (a.u.). The same measure for “GGCAATGCATGATTAGCCCATCAGGAAATATATTTACAAACGGAGTCACCTAGTGCAG”: 4200 fluorescence intensity (a.u.). As for “ATACAATAACAATCATATTTATCATTTCCTTTGCTCCGAACGGAGTCACCTAGTGCAG”, the binding signal is 3250 fluorescence intensity (a.u.). Turning to “AGCTAGTAATAATTAGTTTAAATAAACTAGCTAGTAATTACGGAGTCACCTAGTGCAG”, the binding signal was 8160 fluorescence intensity (a.u.).

Regarding “GTAACAATCATGTGTAATTTGCAGAAACCAAATCCATTTTCGGAGTCACCTAGTGCAG”, the binding signal was 12300 fluorescence intensity (a.u.). For “AGTTTTAATTTCCTCGTCTTTGCATATATGGAAGGAACCGCGGAGTCACCTAGTGCAG”, the binding signal is 3560 fluorescence intensity (a.u.). As to “TCACTGACTGATAAGTCGATCCCACCCACATCCGCGCTGACGGAGTCACCTAGTGCAG”, the binding signal was 12000 fluorescence intensity (a.u.). As for “ATAAAACTAATTGCATAAATAAGAGCTAATTCGTGAGATACGGAGTCACCTAGTGCAG”, the binding signal is 15500 fluorescence intensity (a.u.). With “AATATAATTACATTGTGATTGTACTATATTTATATTTGTTCGGAGTCACCTAGTGCAG”, the binding signal was 49400 fluorescence intensity (a.u.).

For “AGCACCGATTAGCAATTACCCCTCCCACGAGGCAGAGACGCGGAGTCACCTAGTGCAG”, the binding signal is 6460 fluorescence intensity (a.u.). The same measure for “TCTAGATTTTATATAACTTCTAACTACCTAAATCAAACGGCGGAGTCACCTAGTGCAG”: 4660 fluorescence intensity (a.u.); for “CATATAGATTTATTTTCAGAAAATAGGACTTACATTTTGACGGAGTCACCTAGTGCAG”: 3290 fluorescence intensity (a.u.); for “TCCCCTCTGATTAATTAATTAATTAATTAATTAGCTAAAACGGAGTCACCTAGTGCAG”: 65500 fluorescence intensity (a.u.). The same measure for “ATAGACTGATAGATACATGCAATGCAGCCAAAGCGGAGCACGGAGTCACCTAGTGCAG”: 31600 fluorescence intensity (a.u.); for “CCTAATTAATCCATCATTAGCACATGTGGGTTACTGTAACCGGAGTCACCTAGTGCAG”: 49900 fluorescence intensity (a.u.); for “ACCTCTGATTGCGTCATTCCATTTCCATGGATTGCTCGATCGGAGTCACCTAGTGCAG”: 41200 fluorescence intensity (a.u.). On to “GAGGGAGTACTAATTATTTAATTTGATGATTATAATACTTCGGAGTCACCTAGTGCAG”, for which the binding signal was 17900 fluorescence intensity (a.u.).

Regarding “GTGGTAGTTTGTAATAATTGGTTGTAGCTCTTTTAAGCACCGGAGTCACCTAGTGCAG”, the binding signal was 5870 fluorescence intensity (a.u.).

For “ATGAATTTCGTTTCAATCAACGATGTGAATTGTAGGTAACCGGAGTCACCTAGTGCAG”, the binding signal was 34800 fluorescence intensity (a.u.). As to “AGTTAATTGTCTACATGCATACATGTCTTATATTATGGAACGGAGTCACCTAGTGCAG”, the binding signal is 30900 fluorescence intensity (a.u.). “TTTGCAATCAATTAGAGGAGGAAATACATGGGAGAAGCAGCGGAGTCACCTAGTGCAG”: the binding signal is 27200 fluorescence intensity (a.u.). The value for “AGAGATTTAAACTTGTATTAATTTAATGAGGTTTATAGAGCGGAGTCACCTAGTGCAG” was 6320 fluorescence intensity (a.u.); that for “CTAATTGACATATCCAAAACTTTGGTATAAATAATTACCACGGAGTCACCTAGTGCAG” was 31400 fluorescence intensity (a.u.); that for “TTTTGATAGGATGTCTATTCAGATTTATTTTAATATGTCACGGAGTCACCTAGTGCAG” was 16300 fluorescence intensity (a.u.). The value for “GCAACGACGTCTCCCTGATTAGCGTGGAGACTGTGGGAGGCGGAGTCACCTAGTGCAG” was 5240 fluorescence intensity (a.u.).

Take “AACTTTTACAAAATTTGTGAACATTTATTTCCCATATGAACGGAGTCACCTAGTGCAG”: the binding signal is 3270 fluorescence intensity (a.u.). The value for “CCAGTTAAACTGGAATGAGGAAACTAGCCGCAATGCGTAACGGAGTCACCTAGTGCAG” was 4710 fluorescence intensity (a.u.); that for “CCTCCTGATTGCTGCGGTTTGCGCCAAAATCTCCTCGCCCCGGAGTCACCTAGTGCAG” was 30900 fluorescence intensity (a.u.); that for “TGTTAACTTTATTGTATCAGCAATCAAGTTATCAAGACAACGGAGTCACCTAGTGCAG” was 3170 fluorescence intensity (a.u.). With “ACGCTTTCCTGTGCTCTTTCTCGGTTATTAATATTTTCTCCGGAGTCACCTAGTGCAG”, the binding signal was 3260 fluorescence intensity (a.u.). The same measure for “AACTTCATTACATTTGATTGGTGGCATCTTTACTACCACTCGGAGTCACCTAGTGCAG”: 17700 fluorescence intensity (a.u.).
